# Experimental data as given in PMC7819943, “Rice protein-binding microarrays: a tool to detect cis-acting elements near promoter regions in rice”.
# The list shows a part of the results.
# Target: T1, OsWOX13 (Oryza sativa, UniProt Q5QMM3 1-267)
# T1 sequence: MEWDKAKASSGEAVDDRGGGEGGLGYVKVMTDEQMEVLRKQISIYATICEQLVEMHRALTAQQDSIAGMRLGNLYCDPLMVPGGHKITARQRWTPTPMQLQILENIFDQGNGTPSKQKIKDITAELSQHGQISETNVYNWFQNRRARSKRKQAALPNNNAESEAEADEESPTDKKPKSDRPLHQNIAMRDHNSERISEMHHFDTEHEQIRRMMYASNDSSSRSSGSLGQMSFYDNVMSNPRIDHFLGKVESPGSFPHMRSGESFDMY
# Experiment: protein-binding microarray (RPBM); PBS, 2% BSA, 51.3 ng/ul salmon testes DNA, 50 uM zinc acetate, 200 nM TF, 25 C, 1 h; high values mean tight binding
# Conditions: protein: recombinant; tags: N-terminal polyhistidine and DsRed monomer fusion (pET32a); label: CyDye5-dUTP incorporated in the synthesized complementary strand; 3' TTTTT single-stranded linker to array surface; dsDNA, one strand shown
# Outline: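 Using Ni–NTA, transcription factors fused N-terminally to polyhistidine and DsRed were purified after expression in E. coli BL21-CodonPlus. These were incubated at 200 nM with a blocked, double-stranded custom Agilent array for 1 h at 25 °C in a buffer containing 50 µM zinc acetate, and the array was washed. The binding signal is per-feature fluorescence intensity (arbitrary units) on an Axon 4000B scanner.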
row,Sequence,binding signal
1,CCAATCACATTCACTTTTACAGTTTAGCCCCACCCTCTCCCGGAGTCACCTAGTGCAG,4980 fluorescence intensity (a.u.)
2,TGTGATTGTGTGAGAACTATCTATTTGATCTTACATTGTTCGGAGTCACCTAGTGCAG,21800 fluorescence intensity (a.u.)
3,TTTATTATTTTATCGGATCTAATTACCACGTAAGCGTCACCGGAGTCACCTAGTGCAG,3940 fluorescence intensity (a.u.)
4,CGTTAAAATTGAAAGTTTGATTGAAATTGGAACGATGTGACGGAGTCACCTAGTGCAG,40200 fluorescence intensity (a.u.)
5,AGTAATCAGCACTCAATTTACCATCATTCAGAGAGGACAACGGAGTCACCTAGTGCAG,11700 fluorescence intensity (a.u.)
6,TGTAAGAGTGGCAAATAGTTAATTAGTCTAAATTTTGCACCGGAGTCACCTAGTGCAG,4770 fluorescence intensity (a.u.)
7,ACTTTTAGGTACCTAATTATGTTTAGTACTAATTAGCCGCCGGAGTCACCTAGTGCAG,3900 fluorescence intensity (a.u.)
8,TAGTTCAATCAATTGAAGTCGAGCGGCTTCAGATATTCGTCGGAGTCACCTAGTGCAG,25300 fluorescence intensity (a.u.)
9,TAAAACATAAATTTACCATTGACCTACAATTTGAAAACCTCGGAGTCACCTAGTGCAG,6720 fluorescence intensity (a.u.)
10,ATACTTAACTGTCTCTGTAGCAACACGCTCGATATCATCTCGGAGTCACCTAGTGCAG,3500 fluorescence intensity (a.u.)
11,GTGATCGTCTCCCTTAATTAGCTTCCACTAATCTTTCCACCGGAGTCACCTAGTGCAG,8410 fluorescence intensity (a.u.)
12,TGTCTAATTGTCTCACGTTCAATTGTTGCCAACTTGCAACCGGAGTCACCTAGTGCAG,16600 fluorescence intensity (a.u.)
13,GTCACCAATCACGACTTCCCATGCACATCGTCCAACCCAGCGGAGTCACCTAGTGCAG,18900 fluorescence intensity (a.u.)
14,TAAAAGTAATTATGGCCATTTGCAGAAGCGGAAGGTGGAGCGGAGTCACCTAGTGCAG,4970 fluorescence intensity (a.u.)
15,TTAATTAATTAATTTTCTTCCTAAACATATCCGCTAATCCCGGAGTCACCTAGTGCAG,53500 fluorescence intensity (a.u.)
16,ACTGACTGTCACTCTCAGAGCTTGTTCTCCCACTATCTATCGGAGTCACCTAGTGCAG,8950 fluorescence intensity (a.u.)
17,ACACTAATTTCAAGGTTGCTCGTGAGTCATAATCCTGACGCGGAGTCACCTAGTGCAG,11500 fluorescence intensity (a.u.)
18,CTTGAGATGATTAGACTCCTAATGTAGCTCATGATTATATCGGAGTCACCTAGTGCAG,14400 fluorescence intensity (a.u.)
19,TAATGTGTGATTCCTCTAATTAAAAGAACTTCCAACTTATCGGAGTCACCTAGTGCAG,5600 fluorescence intensity (a.u.)
20,AGCTTCCATTTGAAGTTAATTACGGTGATTAGCTTGAGGCCGGAGTCACCTAGTGCAG,23700 fluorescence intensity (a.u.)
21,TGCTAATTTTATCCCGTGACTATCGTGCAGTAACGGAATTCGGAGTCACCTAGTGCAG,16800 fluorescence intensity (a.u.)
22,GCCTCCTATTAAATGGCAATTGTTTTGCCTGCGTGCGGGCCGGAGTCACCTAGTGCAG,3170 fluorescence intensity (a.u.)
23,ATTTCTAATCAATTCGGGAAGGGAAGGATAAAATTGTTTTCGGAGTCACCTAGTGCAG,6320 fluorescence intensity (a.u.)
24,CTGCTGTAAATTTGTTGGTTACTGACTTACTGCGTACACTCGGAGTCACCTAGTGCAG,9160 fluorescence intensity (a.u.)
25,ACTTAAATTAGCAGCAGTTACTACCACCTGCTTCGCAACCCGGAGTCACCTAGTGCAG,24900 fluorescence intensity (a.u.)
26,CGTCCTTCCGATATTGATTGTTTAAGTCGGTTGATTCGGACGGAGTCACCTAGTGCAG,6600 fluorescence intensity (a.u.)
27,ACCCATGATTGCTAGTGCTACTCGCGACAAGGGTTTGTAGCGGAGTCACCTAGTGCAG,33600 fluorescence intensity (a.u.)

row,Sequence,binding signal
1,TAGCACATGATTAATTGAGTAATAATTATTTTAAGTTTGACGGAGTCACCTAGTGCAG,28200 fluorescence intensity (a.u.)
2,GATCATAATCCACTAAATTTCAATCAGAGCCCAAAATAGGCGGAGTCACCTAGTGCAG,10800 fluorescence intensity (a.u.)
3,ATCTATCATCTGAAATATAATTATTTTCCTCATAACCATACGGAGTCACCTAGTGCAG,7090 fluorescence intensity (a.u.)
4,GAGTTACACAGATTGGTATTGGCTGCTATCAGTAGAGGCACGGAGTCACCTAGTGCAG,7370 fluorescence intensity (a.u.)
5,TTAAACAGATTTATAGAGTTACTTCTGAACCATGCAAAAGCGGAGTCACCTAGTGCAG,27300 fluorescence intensity (a.u.)
6,TGTAATTAGGAGTCCGACTTTCGTCTCAAGTTAGTATGCGCGGAGTCACCTAGTGCAG,20900 fluorescence intensity (a.u.)
7,TCTAAAATAGACAAAGCATTAAATTTGTACCCAGCATATCCGGAGTCACCTAGTGCAG,8920 fluorescence intensity (a.u.)
8,GGCTCATCTAATCATCGTTGCATTACAACAAATCTATGTGCGGAGTCACCTAGTGCAG,5180 fluorescence intensity (a.u.)
9,AATATAATTTTAAATTATAAAATCATAAAGCTAACAAGTTCGGAGTCACCTAGTGCAG,26900 fluorescence intensity (a.u.)
10,TTTGGCTAAATTTTGGATGTTAACAATCTTATGTATATAACGGAGTCACCTAGTGCAG,3740 fluorescence intensity (a.u.)
11,ACATAATTAATCATGTGCTAATGGTTTTCTTGATCATTTTCGGAGTCACCTAGTGCAG,16200 fluorescence intensity (a.u.)
12,ACATTAATTTCTGTTTAAACTCTTATGAATGCTTATATTTCGGAGTCACCTAGTGCAG,15000 fluorescence intensity (a.u.)
13,CTCCTTGAAATTTCACCTTAATTTGCTCGACGTGCTATATCGGAGTCACCTAGTGCAG,17500 fluorescence intensity (a.u.)
14,GAGCAATTGAGTTGGATAATTGCTGCGTGCTTTTACTTCACGGAGTCACCTAGTGCAG,9920 fluorescence intensity (a.u.)
15,GTCTGTAATCACAAATGAAATCTTTAATCCCGTCAGAACTCGGAGTCACCTAGTGCAG,3410 fluorescence intensity (a.u.)
16,CACTAATTGATCAATTGCACAACAAATTGCTTGAATAACGCGGAGTCACCTAGTGCAG,59900 fluorescence intensity (a.u.)
17,CTAATATAGCTAATTGTGGTACAAAACTATAAATGATACACGGAGTCACCTAGTGCAG,3670 fluorescence intensity (a.u.)
18,GAAGTTTAATTATCATAAGATTGTGATGGTTATGTATGGTCGGAGTCACCTAGTGCAG,31700 fluorescence intensity (a.u.)
19,GGTGTTTCTCTGATTGAGGTCCTGCGCAGATCATCCTCTACGGAGTCACCTAGTGCAG,10300 fluorescence intensity (a.u.)
20,ACTACAATTATATACTACTACAATGTAATTATATAATTAGCGGAGTCACCTAGTGCAG,4170 fluorescence intensity (a.u.)
21,GCATGCATACATGTAATTAATTAGCACATTCTCTCCCCTACGGAGTCACCTAGTGCAG,12700 fluorescence intensity (a.u.)
22,CCCTAATTATGGTACGTGTTGATCGTGCCACTTCTTCCTCCGGAGTCACCTAGTGCAG,39500 fluorescence intensity (a.u.)
23,ACTATCGTAGGTAGCCAATCAATTTAACATTTCACTCAAGCGGAGTCACCTAGTGCAG,3630 fluorescence intensity (a.u.)
24,CGTGATTAGTCTCACCTTAGTGTAATCTTTTGAATTTGGACGGAGTCACCTAGTGCAG,40300 fluorescence intensity (a.u.)
25,TTTATAATTAGTGCCCAAACATCCGATGTGATAGGGACTTCGGAGTCACCTAGTGCAG,20600 fluorescence intensity (a.u.)
26,AACGTCAATCACTTCCGCGCTAGAAATTAGTCATCAACACCGGAGTCACCTAGTGCAG,26300 fluorescence intensity (a.u.)
27,TTGCCCATCACCGACCTAACTGGACTAGCCCATCAACCAGCGGAGTCACCTAGTGCAG,6720 fluorescence intensity (a.u.)
